# Screen size: about 350,000 compounds; about 31,000 (8.9%) were called active. The shares of active, inactive and inconclusive entries below differ from those in the screen. Calls follow the shape of the dose curve; as a rule, active = well fitted inhibition curve with a large enough effect; inconclusive = small, poorly fitted or top-dose-only effect; inactive = no such curve, though single readings can be large or run the other way. A potency beside an inconclusive call is a rough fit, not a confirmed value.
# Biological target: Histone-lysine N-methyltransferase EHMT2 (Homo sapiens) (UniProt Q96KQ7)
# Chain of UniProt Q96KQ7 (Q96KQ7 whole entry, looked up): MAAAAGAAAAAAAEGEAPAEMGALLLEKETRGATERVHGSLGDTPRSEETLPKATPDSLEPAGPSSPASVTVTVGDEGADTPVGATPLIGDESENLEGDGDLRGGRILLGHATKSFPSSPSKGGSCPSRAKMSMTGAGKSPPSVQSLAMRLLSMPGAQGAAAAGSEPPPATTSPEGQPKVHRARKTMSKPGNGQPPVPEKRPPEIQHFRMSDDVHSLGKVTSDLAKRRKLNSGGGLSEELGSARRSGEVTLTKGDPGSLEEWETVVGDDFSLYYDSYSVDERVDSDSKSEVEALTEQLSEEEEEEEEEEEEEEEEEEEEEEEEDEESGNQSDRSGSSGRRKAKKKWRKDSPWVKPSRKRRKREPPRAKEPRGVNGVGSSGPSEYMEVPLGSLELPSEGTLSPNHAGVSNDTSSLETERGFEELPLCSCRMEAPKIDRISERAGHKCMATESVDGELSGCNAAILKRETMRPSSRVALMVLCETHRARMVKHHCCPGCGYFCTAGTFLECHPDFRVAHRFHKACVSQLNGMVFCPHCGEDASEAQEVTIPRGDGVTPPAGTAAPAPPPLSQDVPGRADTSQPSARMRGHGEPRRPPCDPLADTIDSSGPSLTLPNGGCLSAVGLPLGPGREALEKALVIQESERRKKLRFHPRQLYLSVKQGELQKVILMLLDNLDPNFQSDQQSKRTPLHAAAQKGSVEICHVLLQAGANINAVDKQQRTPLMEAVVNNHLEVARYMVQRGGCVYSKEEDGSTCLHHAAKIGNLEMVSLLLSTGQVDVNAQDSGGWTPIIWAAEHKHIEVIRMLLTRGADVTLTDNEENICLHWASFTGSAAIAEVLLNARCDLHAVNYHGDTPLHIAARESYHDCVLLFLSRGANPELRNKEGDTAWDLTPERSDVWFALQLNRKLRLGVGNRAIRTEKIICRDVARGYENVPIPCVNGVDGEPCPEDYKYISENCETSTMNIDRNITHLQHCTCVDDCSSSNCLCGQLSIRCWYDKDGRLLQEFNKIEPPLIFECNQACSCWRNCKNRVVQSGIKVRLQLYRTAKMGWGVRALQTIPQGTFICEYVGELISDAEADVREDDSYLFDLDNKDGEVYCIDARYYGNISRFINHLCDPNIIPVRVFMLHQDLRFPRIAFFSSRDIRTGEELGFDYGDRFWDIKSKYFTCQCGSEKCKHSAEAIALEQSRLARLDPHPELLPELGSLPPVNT
# Experiment: qHTS Assay for Inhibitors of Histone Lysine Methyltransferase G9a; also: nearly all actives have a fitted effect of over 75% in size
# Settings: G9a H3K9 monomethylation, AlphaScreen, 2 h; activity, negative = inhibition: at 59 µM (top of the series) unless noted
# Method in brief: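 Using a bead-based AlphaScreen, monomethylated H3K9 product from 2 h room-temperature reactions (G9a 20 nM, peptide 500 nM, SAM 20 uM) was detected with 0.5 ug/mL rabbit anti-H3K9me1 antibody.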
# % is scaled to controls: 0 for no effect and ±100 for the full control effect; potency is read from the fitted curve at half-maximal effect; tags tell the direction and shape of the fitted curve.
Compound,Potency,"activity, negative = inhibition"
Cc1cccc(N2CC(C(=O)Nc3ccc(S(=O)(=O)N4CCCCC4)cc3)CC2=O)c1C (stereo unspecified),inactive,–
CC1=C(C#N)C(c2ccc(O)cc2)C2=C(CCCC2=O)N1 (stereo unspecified),inactive,–
CC(OC(=O)c1cccc(S(=O)(=O)N(C)C)c1)C(=O)NCc1ccc2c(c1)OCO2 (stereo unspecified),"inconclusive: 79.4 µM [inhibitor, single point]",–
CCOc1ccc(NC(=O)CSc2nc(=O)[nH]c3c2CCC3)cc1,inactive,–
COc1ccc(NC(=O)CC(C)c2ccccc2)cc1S(=O)(=O)N1CCOCC1 (stereo unspecified),"inconclusive: 1.78 µM [inhibitor, partial curve, poor fit]",–
CCC(C)C(NC(=O)c1ccccc1NC(=O)c1ccc(C)cc1)C(=O)O (stereo unspecified),"inconclusive: 39.8 µM [inhibitor, partial curve, poor fit]",–
CCC(Sc1nnc2c3ccccc3n(C)c2n1)C(=O)Nc1nnc(C(C)C)s1 (stereo unspecified),inactive,–
O=[N+]([O-])c1ccc(Cl)cc1NCC1CCCO1 (stereo unspecified),"inconclusive: 89.1 µM [inhibitor, single point]",–
CN1C(=O)/C(=C2/C=CC=CN2C)OC1=S,active: 31.6 µM,–
CCc1nc2ccccc2c(C(=O)Nc2ccc(F)cc2)c1C,inactive,–
CC(C)(C)OC(=O)NCCc1nnc(SCc2c(Cl)cccc2Cl)o1,"inconclusive: 35.5 µM [inhibitor, partial curve, poor fit]",–
N#CC1=C2SCN(Cc3ccccc3)CN2C(=O)CC1c1ccccc1F (stereo unspecified),active: 1.78 µM,–
CSc1ccc(C2C(C(=O)c3ccco3)=C(O)C(=O)N2c2nnc(SC)s2)cc1 (stereo unspecified),"inconclusive: 1 µM [inhibitor, full curve, poor fit]",–
CC1(C)N=C(N)NC(Nc2ccccc2)=N1,inactive,–
CCn1ncc([N+](=O)[O-])c1C(=O)NC1CCCCC1,–,inactive: 29.9% [at 0.501 µM]
COc1ccc(OCC(=O)NC(=O)c2ccccc2)c([N+](=O)[O-])c1,–,inactive: -35% [at 12.7 µM]
Cc1ccc(/C=N/NC(=O)c2nnn(-c3nonc3N)c2C(C)C)o1,"inconclusive: 89.1 µM [inhibitor, single point]",–
CCOC(=O)c1c(NC(=O)CC2SC(N)=NC2=O)sc(C)c1C (stereo unspecified),"inconclusive: 89.1 µM [inhibitor, partial curve, poor fit]",–
Cc1cc(C(F)(F)F)cc(NNC(=O)NC(=O)c2ccccc2Cl)n1,"inconclusive: 89.1 µM [inhibitor, single point]",–
Cc1ccc(C)c(CNC(=O)c2sc3ncnc(N(C)C4CCCCC4)c3c2C)c1,inactive,–
COc1ccc(/C([O-])=C(/C(=S)Nc2ccc(C)c(C)c2)n2c[n+](C)c3ccccc32)cc1OC,active: 44.7 µM,–
Cc1ccc2nc(N(Cc3cccnc3)C(=O)CCOc3ccccc3)sc2c1,inactive,–
Cc1nc(NC(=O)CSc2nnnn2Cc2ccccc2)sc1C,"inconclusive: 89.1 µM [inhibitor, single point]",–
COc1ccc(-n2c(=S)[nH]c3cc(C(=O)NCCCN4CCOCC4)ccc3c2=O)cc1,active: 28.2 µM,–

Compound,Potency,"activity, negative = inhibition"
COc1cc(OC)c(NC2=NCCCCC2)cc1Cl,"inconclusive: 50.1 µM [inhibitor, partial curve]",–
CCc1c(C)sc(NC(=O)c2cc(CC(C)C)on2)c1C#N,"inconclusive: 89.1 µM [inhibitor, single point]",–
CCc1nnc(NC(=O)c2ccc(-c3ccc(F)cc3)o2)s1,"inconclusive: 89.1 µM [inhibitor, partial curve, poor fit]",–
COc1ccc(Br)cc1S(=O)(=O)n1c([N+](=O)[O-])cnc1C,"inconclusive: 2.82 µM [inhibitor, full curve]",–
Cc1cccc(NC(=O)c2cccc3c2-c2ccccc2C3=O)n1,"inconclusive: 56.2 µM [inhibitor, partial curve, poor fit]",–
CC(=O)Nc1ccc(Nc2ncnc3sc4c(c23)CCCC4)cc1,"inconclusive: 39.8 µM [inhibitor, partial curve, poor fit]",–
Cc1ccc(CN2CCN(Cc3cccn3-c3ccccn3)CC2CCO)cc1 (stereo unspecified),"inconclusive: 79.4 µM [inhibitor, partial curve, poor fit]",–
CCn1cc(CN2CCC(n3nccc3NC(=O)c3ccc(OC)cc3)CC2)cn1,inactive,–
Cc1ccc(C(=O)NC2(C(F)(F)F)N=C(c3ccccc3)N(C3CCCCC3)C2=O)cc1 (stereo unspecified),inactive,–
COc1ccc(CNC(=O)c2cn(-c3cccc(OC)c3)c(=O)c3ccccc23)cc1,"inconclusive: 20 µM [inhibitor, partial curve, poor fit]",–
CC(C)CCNC(=O)C1CCC(CNS(=O)(=O)c2ccc(Cl)cc2)CC1 (stereo unspecified),inactive,–
CN(CCOc1ccc(Br)cc1)CC(O)c1ccccc1 (stereo unspecified),active: 12.6 µM,–
CCS(=O)(=O)Nc1cc2c3c(c1)CCN3C(=O)CC2,"inconclusive: 79.4 µM [inhibitor, single point]",–
O=C(CN1C(=O)c2ccccc2C1=O)N1CCN(C2c3ccccc3-c3ccccc32)CC1,inactive,–
Cc1oc2ccc(O)cc2c1C(=O)c1ccc([N+](=O)[O-])cc1,"inconclusive: 79.4 µM [inhibitor, single point]",–
CCOC(=O)c1ccc(-c2ccc(/C=N/NC(=O)CN(c3cccc(C)c3)S(C)(=O)=O)o2)cc1,active: 7.94 µM,–
CNc1ncncc1-c1ccccc1CN(C)C,–,inactive: -6.91% [at 0.501 µM]
COc1cc(Cl)ccc1OCc1cc(C(=O)N2CCCC(OC)C2)no1 (stereo unspecified),"inconclusive: 25.1 µM [inhibitor, partial curve, poor fit]",–
COc1ccc(/C=C2/SC(=O)N(CCCCCC(=O)Nc3ccccc3C(=O)O)C2=S)cc1,active: 35.5 µM,–
COc1ccc(/C=C(/NC(=O)c2cccc([N+](=O)[O-])c2)C(=O)O)cc1OC,"inconclusive: 44.7 µM [inhibitor, partial curve, poor fit]",–
CCC1Oc2ccc(C)cc2N(CC(=O)N(Cc2ccc(C)o2)C2CCCC2)C1=O (stereo unspecified),"inconclusive: 28.2 µM [inhibitor, partial curve, poor fit]",–
CC1CCCCN1C(=O)COc1ccccc1F (stereo unspecified),inactive,–
CC1(C)NC(=O)N(CCCOc2ccccc2Br)C1=O,inactive,–
COc1cc(/C=C2\SC(=S)N(C(C(=O)O)c3ccccc3)C2=O)cc(OC)c1OC (stereo unspecified),"inconclusive: 44.7 µM [inhibitor, partial curve, poor fit]",–

Compound,Potency,"activity, negative = inhibition"
COc1ccccc1OCc1nc(-c2cccc(C)c2)no1,inactive,–
COc1cc(OC)c(NC(=O)N2CC=C(c3c[nH]c4ccccc34)CC2)cc1Cl,"inconclusive: 3.98 µM [inhibitor, full curve]",–
CCCCNC(=O)CSc1nc2ccccc2n1S(=O)(=O)c1ccc(Br)cc1,"inconclusive: 89.1 µM [inhibitor, single point]",–
Cc1ccc(-c2cc(C(=O)NC3=NCCS3)c3cc(Br)ccc3n2)o1,"inconclusive: 1.58 µM [inhibitor, full curve, poor fit]",–
CCOc1ccc(NC(=O)c2cc(F)c(F)cc2Cl)cc1OCC,inactive,–
CCOc1ccc(Cl)cc1/C=C1/C(=O)ON=C1C,"inconclusive: 79.4 µM [inhibitor, single point]",–
CCOC(=O)C1CCN(C(=O)c2ccc3c(c2)N=C(CC)c2cc(C)ccc2S3)CC1,"inconclusive: 17.8 µM [inhibitor, partial curve, poor fit]",–
CCN(CC)c1ccc(NC(=S)NC(=O)C2CCC2)cc1,active: 39.8 µM,–
Cc1cc(C)cc(NC(=O)CC2Oc3ccc(C)cc3NC2=O)c1 (stereo unspecified),"inconclusive: 50.1 µM [inhibitor, partial curve, poor fit]",–
O=C(COc1ccccc1[N+](=O)[O-])N(C1CCCCC1)C1CCS(=O)(=O)C1 (stereo unspecified),"inconclusive: 10 µM [inhibitor, single point]",–
CCOC(=O)c1cc2cc(-c3c(C(=O)OCC)oc4cc(O)cc(O)c4c3=O)ccc2o1,–,inconclusive: -63.1% [inhibitor]
Cc1ccccc1N(Cc1cc(=O)[nH]c2ccccc12)C(=O)CCl,"inconclusive: 39.8 µM [inhibitor, partial curve, poor fit]",–
Cc1cccc(NC(=O)Cc2noc3ccccc23)c1,"inconclusive: 15.8 µM [inhibitor, partial curve, poor fit]",–
CCCn1c(=O)c2c(nc3n2CC(C)CN3Cc2ccccc2)n(C)c1=O (stereo unspecified),"inconclusive: 39.8 µM [inhibitor, partial curve, poor fit]",–
CCCCn1c(=O)nc2n(-c3ccc(F)cc3)c3ccccc3cc-2c1=O,"inconclusive: 39.8 µM [inhibitor, single point]",–
O=C(NCCNC1CCC(c2ccccc2)CC1)c1ccc(F)cc1 (stereo unspecified),"inconclusive: 22.4 µM [inhibitor, full curve, poor fit]",–
O=C(Nc1cccc(O)c1)c1cccc(S(=O)(=O)N2CCCC2)c1,inactive,–
N/C(=N\OS(=O)(=O)c1ccc(Cl)cc1)c1ccncc1,active: 2.51 µM,–
Cc1ccc(Cl)cc1NC(=O)CSc1nnc(C)n1-c1ccccc1,"inconclusive: 7.94 µM [inhibitor, single point]",–
CCCOc1ccc(CCc2n[nH]c(=S)n2Cc2ccccc2)cc1,"inconclusive: 22.4 µM [inhibitor, single point]",–
Cc1cccc(S(=O)(=O)N2CN(CC3CCCO3)c3nc4ccccc4nc32)c1 (stereo unspecified),active: 50.1 µM,–
CN(C)CC(=O)c1ccc(-c2ccccc2)cc1,active: 31.6 µM,–
CCCNC(=O)OC[C@H]1O[C@H](CCO/N=C/[C@@H](NS(=O)(=O)c2ccc(C)cc2)[C@H](C)/C=C/CC(=O)OC)C=C[C@@H]1Oc1ccc(OC)cc1,"inconclusive: 79.4 µM [inhibitor, single point]",–
